This is an account of results in the antibiotic and cytotoxicity screens of Wong et al. (2023).

The test system of one assay is HSkMC. Description: cytotoxicity call (relative viability < 0.9). Conditions: 10 µM.
The subject of another assay is HepG2. Description: cytotoxicity call (relative viability < 0.9). Conditions: 10 µM.
The next assay concerns S. aureus RN4220. Kind of assay: growth inhibition call (relative growth <= 0.2). Particulars: 50 µM.

Structures are written as SMILES. This is one part of the list.

Take `C[C@@H]1CCCCO[C@H](CN(C)CC2CCCCC2)[C@H](C)CN([C@H](C)CO)C(=O)c2cc(NS(=O)(=O)c3cccs3)ccc2O1`: the cytotoxicity call in the assay with HSkMC and in the assay with HepG2 was “inactive” throughout. Besides, the growth inhibition call in the assay with S. aureus RN4220 is “inactive”.
For the compound `C=CCOC(=O)[C@@H]1[C@H]2C(=O)O[C@H](c3ccccc3)[C@H](c3ccccc3)N2[C@H](c2ccc(OCCOC(=O)[C@@H]3C[C@@H]4C(=O)NCC(=O)N4[C@@H]3c3ccc(O)cc3)cc2)[C@@]12C(=O)Nc1ccc(I)cc12`, the cytotoxicity call with HSkMC and in the assay with HepG2 was “inactive” in each case. The growth inhibition call in the assay with S. aureus RN4220 was “inactive”.
As for `CO[C@H]1CN(C)C(=O)c2cc(NS(=O)(=O)CC(F)(F)F)ccc2OC[C@H](C)N(Cc2nccs2)C[C@H]1C`, the cytotoxicity call in the assay on HSkMC and in the assay with HepG2 was “inactive” in each case. Also, the growth inhibition call in the assay on S. aureus RN4220 was “inactive”.
As for `COCC#Cc1cnc2c(c1)C(=O)N([C@@H](C)CO)C[C@H](C)[C@H](CN(C)C(=O)CCN1CCCCC1)O2`, the cytotoxicity call in the assay on HSkMC and in the assay with HepG2 was “inactive” each time. In addition, the growth inhibition call with S. aureus RN4220 was “inactive”.
For `COc1ccc2c3c([nH]c2c1)[C@H](CO)N(C[C@]13CN(Cc2ccccc2F)C1)S(=O)(=O)c1cn(cn1)C`, the cytotoxicity call in the assay with HSkMC and in the assay on HepG2 was “inactive” each time. The growth inhibition call with S. aureus RN4220 was “inactive”.
With `C[C@@H]1CN([C@@H](C)CO)C(=O)Cc2cc(NS(C)(=O)=O)ccc2O[C@H]1CN(C)S(=O)(=O)c1ccc(F)cc1`, the cytotoxicity call with HSkMC and in the assay with HepG2 was “inactive” each time. Also, the growth inhibition call with S. aureus RN4220 is “inactive”.
With `Cc1ccccc1S(=O)(=O)N1C[C@H](O)COC[C@@H]2O[C@H](CC(=O)NCCc3ccccc3)CC[C@H]21`, the cytotoxicity call in the assay on HSkMC and in the assay on HepG2 was “inactive” in each case. The growth inhibition call in the assay on S. aureus RN4220 is “inactive”.
Turning to `C[C@H]1CCCCO[C@@H](CN(C)Cc2ccc(C(F)(F)F)cc2)[C@@H](C)CN([C@@H](C)CO)C(=O)c2cc(NC(=O)c3ccccc3)ccc2O1`, the cytotoxicity call in the assay with HSkMC and in the assay with HepG2 was “active” throughout. Besides, in the assay with S. aureus RN4220, the growth inhibition call was “inactive”.
On to `C[C@@H]1CN([C@@H](C)CO)C(=O)c2cc(NS(=O)(=O)c3cccs3)ccc2O[C@H]1CN(C)S(=O)(=O)c1cn(C)cn1`, for which the cytotoxicity call in the assay with HSkMC and in the assay with HepG2 was “inactive” in each case. The growth inhibition call in the assay with S. aureus RN4220 was “inactive”.
Take `C[C@H](CO)N1C[C@H](C)[C@@H](CN(C)Cc2ccc(C(=O)O)cc2)OCCCC[C@H](C)Oc2ccc(NS(=O)(=O)c3ccc(F)cc3)cc2C1=O`: the cytotoxicity call with HSkMC and with HepG2 was “inactive” in each case. Further, the growth inhibition call with S. aureus RN4220 is “inactive”.
`CNC[C@@H]1Oc2ccc(NS(=O)(=O)c3cn(C)cn3)cc2CC(=O)N([C@H](C)CO)C[C@H]1C`: the cytotoxicity call with HSkMC and with HepG2 was “inactive” in each case. The growth inhibition call in the assay on S. aureus RN4220 is “inactive”.
With `C[C@H](CO)N1C[C@H](C)[C@H](CN(C)Cc2ccncc2)Oc2ccc(NS(=O)(=O)c3ccc(F)cc3)cc2C1=O`, the cytotoxicity call with HSkMC and in the assay with HepG2 was “inactive” in each case. The growth inhibition call in the assay on S. aureus RN4220 was “inactive”.
In the case of `COc1ccc(NC(=O)O[C@H]2[C@@H]3OC(=O)[C@H](Cc4cccc(Br)c4)C/C=C/C[C@@H](Cc4cccc(Br)c4)C(=O)O[C@H]3[C@@H](OC)O[C@@H]2CO)cc1`, the cytotoxicity call in the assay on HSkMC and in the assay with HepG2 was “inactive” in each case. Moreover, in the assay on S. aureus RN4220, the growth inhibition call is “inactive”.
As for `COc1ccc(S(=O)(=O)N(C)C[C@@H]2Oc3cc(C#CC4CC4)ccc3S(=O)(=O)N([C@H](C)CO)C[C@H]2C)cc1`, the cytotoxicity call with HSkMC and with HepG2 was “inactive” each time. Moreover, the growth inhibition call in the assay with S. aureus RN4220 was “inactive”.
As for `C[C@@H]1CN([C@@H](C)CO)C(=O)Cc2cc(NC(=O)Nc3cccc4ccccc34)ccc2O[C@H]1CN(C)C(=O)Nc1ccc(C(F)(F)F)cc1`, the cytotoxicity call in the assay with HSkMC and in the assay on HepG2 was “inactive” in each case. Moreover, the growth inhibition call in the assay on S. aureus RN4220 is “inactive”.
Consider `C=C(C)/C=C1/C=CC(=O)C(C)=C1`, for which the cytotoxicity call with HSkMC and in the assay with HepG2 was “inactive” throughout. Also, in the assay on S. aureus RN4220, the growth inhibition call was “inactive”.
As for `CC(=O)N1CCN(C(=O)C(=O)NC[C@H](c2ccc(N(C)C)cc2)N2CCOCC2)CC1`, the cytotoxicity call in the assay with HSkMC and with HepG2 was “inactive” throughout. In addition, the growth inhibition call in the assay on S. aureus RN4220 was “inactive”.
In the case of `Cc1noc(C)c1NC(=O)N(C)C[C@@H]1OCCCC[C@@H](C)Oc2ccc(NC(=O)CCC(F)(F)F)cc2C(=O)N([C@H](C)CO)C[C@H]1C`, the cytotoxicity call with HSkMC and in the assay on HepG2 was “inactive” in each case. Further, the growth inhibition call with S. aureus RN4220 was “inactive”.
In the case of `C[C@@H]1CN([C@@H](C)CO)C(=O)c2cccc(NC(=O)c3cnccn3)c2O[C@H]1CN(C)Cc1ccc2c(c1)OCO2`, the cytotoxicity call in the assay with HSkMC and in the assay on HepG2 was “inactive” throughout. Besides, the growth inhibition call in the assay on S. aureus RN4220 is “inactive”.
As to `CO[C@@H](C(=O)N(C)C[C@H]1OCc2ccccc2-c2c(n(C)c3ccccc23)C(=O)N([C@@H](C)CO)C[C@@H]1C)c1ccccc1`, the cytotoxicity call in the assay on HSkMC and in the assay on HepG2 was “inactive” each time. Besides, the growth inhibition call in the assay on S. aureus RN4220 was “inactive”.
On to `CCOC(=O)[C@@H]1CCC[C@@H]1N`, for which the cytotoxicity call in the assay on HSkMC (human skeletal muscle cells) and in the assay with HepG2 was “inactive” in each case. In addition, in the assay with S. aureus RN4220, the growth inhibition call was “inactive”.
